Laboratory results published in PubChem BioAssay AID1159614 (National Center for Advancing Translational Sciences (NCATS), 2016).
The campaign covered roughly 45,000 compounds. About 65 (0.1%) were called active. Calls follow the shape of the dose curve; as a rule, active = well fitted activation curve with a large enough effect; inconclusive = small, poorly fitted or top-dose-only effect; inactive = no such curve, though single readings can be large or run the other way. The list shows a part of the results.

Target: Galactocerebrosidase (Homo sapiens) (UniProt P54803)
Assay: A Novel Cell-Based Assay to Identify Small Molecules for B -Galactocerebrosidase; also: 0% is about no effect; nearly all actives have a fitted effect of over 65% in size
Details: 145M-Twi-hGALC-G270D cells (Twitcher mouse brain line with human GALC G270D), HMU-beta-Gal fluorescence, 48 h; series mostly up to 57.5 µM; activation: at the top concentration
Method in brief: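 Brain-derived Twitcher mouse 145M-Twi cells stably expressing human GALC-G270D or wild-type GALC, treated live, then residual GALC activity read by fluorescence of HMU-b-Gal substrate (0.1 mM final) in citrate-phosphate buffer pH 5.2 with sodium taurocholate. Signal increase indicates enhancement.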

Chain of UniProt P54803 (P54803 whole entry, looked up): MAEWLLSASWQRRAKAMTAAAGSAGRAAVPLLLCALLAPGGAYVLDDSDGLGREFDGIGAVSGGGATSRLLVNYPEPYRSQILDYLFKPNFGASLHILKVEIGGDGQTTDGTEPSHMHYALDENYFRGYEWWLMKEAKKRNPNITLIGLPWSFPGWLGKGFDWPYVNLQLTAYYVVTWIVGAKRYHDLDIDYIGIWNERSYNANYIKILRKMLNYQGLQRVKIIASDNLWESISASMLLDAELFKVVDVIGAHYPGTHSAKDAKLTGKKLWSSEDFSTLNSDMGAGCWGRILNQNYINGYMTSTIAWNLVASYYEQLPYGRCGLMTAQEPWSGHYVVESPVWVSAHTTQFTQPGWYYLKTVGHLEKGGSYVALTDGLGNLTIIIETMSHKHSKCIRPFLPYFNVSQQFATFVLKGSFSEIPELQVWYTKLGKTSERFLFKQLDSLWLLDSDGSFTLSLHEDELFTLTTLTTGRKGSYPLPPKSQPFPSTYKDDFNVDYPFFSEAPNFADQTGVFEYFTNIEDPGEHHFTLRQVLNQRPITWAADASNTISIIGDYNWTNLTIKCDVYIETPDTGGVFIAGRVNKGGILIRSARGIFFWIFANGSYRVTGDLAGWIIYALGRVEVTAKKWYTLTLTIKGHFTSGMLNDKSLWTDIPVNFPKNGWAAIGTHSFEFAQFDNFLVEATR

activation, inactive:
Cc1c(-c2nc(-c3ccc4c(c3)OCO4)no2)nnn1-c1ccc(Br)cc1F -9.19%, Cc1ccccc1NC(=O)Cn1c(SCC(=O)Nc2ccc(F)cc2)nc2ccccc21 -10.7%, CCOC(=O)c1ccc(NC(=O)Cn2c(=O)n(-c3ccc(C)cc3)c(=O)c3c2cnn3C)cc1 -14%, O=C(O)c1ccc(CNCc2ccc(Cl)cc2)s1 0.614%, CCOC(=O)c1c(NC(=O)c2nc(SCC)ncc2Cl)sc(C(C)=O)c1C -25.5%, O=C(COc1ccccc1Cl)OCc1cc(=O)n2nc(-c3cccs3)sc2n1 -13.7%, Cc1ccc(CNC(=O)Cc2c(C)c3cc4c(C)coc4cc3oc2=O)cc1 -6.44%, CCC(=O)N1CCc2cc(Br)cc(S(=O)(=O)CCC(=O)N3CCN(c4cccc(C(F)(F)F)c4)CC3)c21 -24.7%, O=[N+]([O-])c1cc(-c2nc(-c3ccccc3)no2)ccc1N1CCCCC1 -15.3%, Cc1ccc(NC(=O)C2CCCN(c3nnc(C)c4c(C)n(-c5ccccc5)nc34)C2)c(Cl)c1 (stereo unspecified) -12.8%, Cc1ccc(S(=O)(=O)Cc2ccc(C(=O)N3CCN(c4cccc(C)c4C)CC3)o2)cc1 -14.2%, CCC(Cn1nnc2ccccc2c1=O)NC(=O)Nc1cccc(C)c1C (stereo unspecified) -9.45%, COc1ccc(C(=O)OCc2cc(=O)n3nc(-c4cccs4)sc3n2)cc1 -18.5%, O=C(Cn1c(=O)n(Cc2ccco2)c(=O)c2ccccc21)Nc1ccc(Cl)cc1Cl -12.2%, CC1=C(C(=O)Nc2ccccc2)C(c2ccncc2)n2nc(SCc3ccccc3Cl)nc2N1 (stereo unspecified) 7.78%, CCOC(=O)c1cc(S(=O)(=O)NCc2ccccc2)[nH]n1 -2.73%, CC(C)(C)c1ccc(S(=O)(=O)NCc2ccc3c(c2)CCN3C(=O)c2ccccc2)cc1 3.21%, COc1cc(-c2noc(-c3ccc(N4CCN(C)CC4)c([N+](=O)[O-])c3)n2)cc(OC)c1OC -13.4%, O=C(c1ccc(Cl)cc1)N1CCC(c2ccncc2)CC1 -8.58%, CCN(CC)S(=O)(=O)c1ccc2nc(NC(=O)c3cccnc3)sc2c1 -13.3%, O=C(Cn1c(=O)ccc2cc(S(=O)(=O)N3CCCC3)ccc21)NCc1ccc(Cl)cc1 -15.5%, CCC(CO)NC(=O)C(=O)Nc1c2c(nn1-c1ccc(F)cc1)CSC2 (stereo unspecified) -2.62%, CCN(c1ncnc2c1cnn2-c1ccc(C)cc1)C1CCCCC1 -5.25%, Cc1cc(Nc2ccc(C)c(Cl)c2)n2nc(Cc3ccccc3)nc2n1 -17.1%, CCOC(=O)c1cccc(NC(=O)c2cc3sccc3n2Cc2ccc(Cl)cc2)c1 10.4%, CCOc1ccc(CCNC(=O)CCc2cn(Cc3ccccc3F)c3ccccc23)cc1OCC -8.52%, CCOc1ccc(NC(=O)c2c(Nc3ccc(OC)cc3OC)sc(C(=O)c3ccc(Cl)cc3)c2N)cc1 -28%, COCCn1c(=O)[nH]c2cc(C(=O)NCc3ccccc3Cl)ccc2c1=O -4.34%, CCOc1ccc(NC(=O)CSc2nc(-c3ccc(OC)cc3)nc3c2Cc2c(CO)cnc(C)c2O3)cc1 -10.9%, CC(C)CN(CCCNC(=O)c1cc(=O)[nH]c2ccc(S(=O)(=O)N3CCCCCC3)cc12)CC(C)C -4.47%, CC(=O)N1c2nc(C(C)C)nn2C2(CCCCC2)[C@@H]2CCCC[C@@H]21 -9.2%, CCOc1ccc2oc(=O)cc(CN3CCN(c4cc(C)ccc4C)CC3)c2c1 -7.7%, Cc1nc2nc(NC(=O)c3ccccc3F)[nH]n2c(=O)c1Cl -18.2%, Cc1cccc(N2CCN(C(=O)c3cccn4c(=O)c5cc(Cl)ccc5nc34)CC2C)c1 (stereo unspecified) -26.6%, O=C(Nc1ccc2oc(-c3ccc(O)c(Br)c3)nc2c1)c1cc2ccccc2o1 -4.29%, CC(=O)Nc1cccc(NC(=O)CN2C(=O)CCSc3ccccc32)c1 -0.183%, COc1cc(OC)c(NC(=O)C2=C(C)C(=O)OC23CCCCCC3)cc1Cl -8.11%, Cc1ccn2c(Nc3ccc(C(C)C)cc3)c(-c3cccs3)nc2c1 -17.9%, COc1ccc(C2C=C(c3cccc(OC)c3)Nc3c(C(=O)Nc4ccccc4)cnn32)cc1 (stereo unspecified) -10.1%, CCn1c2c(c(=O)n3ncc(C(=O)Nc4cc(Cl)ccc4C)c13)CN(Cc1ccc(OC)cc1)CC2 -14.7%, O=C(CSc1nnc(-c2cccc(Cl)c2)o1)N1CCc2ccccc21 -16.2%, O=C(NCCc1ccc(Cl)cc1)C1CCN(c2ncnc3c2nc2n3CCCCC2)CC1 19.5%, COc1ccccc1-c1nnc(SCC(=O)Nc2ccccc2F)o1 -0.968%, Cc1ccc(Cl)cc1NC(=O)CCC(=O)N1CC(C)Sc2ccccc21 (stereo unspecified) -4.03%, CCC1CN(C(=O)N2CCC(C(=O)N3CCN(c4cccc(C)c4C)CC3)CC2)c2ccccc2O1 (stereo unspecified) -9.06%, CC(=O)N1c2ccc(S(=O)(=O)NCC3CCC(C(=O)Nc4ccc(C)cc4)CC3)cc2CC1C (stereo unspecified) -0.348%, CN(Cc1ccco1)C(=O)c1ccc2c(c1)N(Cc1ccccc1F)C(=O)c1ccccc1S2 -3.5%, Cc1ccc(-n2c(=O)c3c4c(sc3n(CC(=O)c3ccc(Cl)cc3)c2=O)CCC4)cc1C -16.1%, COc1ccc2c(c1)c1c(c(=O)n(-c3ccc(F)c(Cl)c3)c(=O)n1CC(=O)N1CCCC1)n2C 2.73%, Cc1c2cnn(-c3ccccc3)c(=O)c2c(C)n1CC(=O)NCCc1ccc(Cl)cc1 -15%, CCOc1ccc(NC(=O)c2cc(S(=O)(=O)N3CCCCCC3)cn2C)cc1 -16.5%, COC(=O)c1cc2sc(C)cc2n1CC(=O)Nc1ccc(C)c(C)c1 -40%, CCc1ccc(NC(=O)CN2CCCN(Cc3cccc(Cl)c3)S2(=O)=O)cc1 -1.97%, COc1cc(CNC(=O)c2ccc3c(c2)N(C)C(=O)C2CCCCN32)cc(OC)c1OC (stereo unspecified) -8.19%, CC(=O)N1CCc2c(sc3c2c(=O)n(-c2ccccc2)c(=O)n3CC(=O)Nc2ccccc2)C1 -6.88%, Cc1nn(CC(=O)NCc2ccco2)c(=O)c2cc3ccccc3n12 -8.21%, CCc1ccccc1N(C)C(=O)c1cn(CC(C)C)c(=O)c2cc(OC)c(OC)cc12 -8.62%, CCOc1ccccc1-n1ccnc(NCc2ccc(F)cc2)c1=O -2.28%, Cc1cccc(NC(=O)Nc2nnc(N(C)C3CCCCC3)s2)c1C -14.2%, COc1ccc(-c2nn(CC(=O)NC3CCCC3)c3c2cnc2ccc(F)cc23)cc1 -18.7%, O=C(CCC(=O)N1Cc2ccccc2Oc2ncccc21)Nc1ccc(Cl)cc1 -25.7%, COC(=O)c1ccc(Cl)cc1NC(=O)N1CC=C(c2c[nH]c3ccccc23)CC1 -4.97%, O=C(Cn1ncc2c(=O)oc3ccccc3c21)Nc1cc(F)ccc1F -0.0553%, COc1ccc(N2CCN(C(=O)c3cc4c(-c5ccccc5F)nn(C)c4s3)CC2)cc1 -1.05%, COc1ccc(OC)c(NC2=C(c3ccccc3)C(=O)c3ccccc32)c1 -20.7%, CC1CCN(S(=O)(=O)c2ccc3c(c2)N(CC(=O)NCc2ccccc2)C(=O)CO3)CC1 9.68%, COc1ccc2c(CNCC(C)c3ccccc3)c(C(=O)O)n(Cc3ccc(F)cc3Cl)c2c1 (stereo unspecified) 13.9%, O=C1CS(=O)(=O)C2(C(=O)N(Cc3cccc(F)c3)c3ccccc32)N1c1ccccc1 (stereo unspecified) -25.1%, COc1ccc(/C=C(\C#N)c2nc(-c3cc(Cl)ccc3OC)cs2)cc1 5.25%, Oc1ccccc1Nc1nc(-c2ccccc2)c2cc(Cl)ccc2n1 -10.7%, O=C(CSc1nc2nccnc2c(=O)n1CCc1c[nH]c2ccccc12)Nc1ccccc1F -11.3%, CCN(CC)c1nc(-c2ccc(C(C)(C)C)cc2)nc2ccccc12 7.4%, Cc1cccc(OCCCC(=O)Nc2sc3c(c2C(N)=O)CCC(C)C3)c1 (stereo unspecified) -8.3%, CCOc1ccc(NC(=O)c2ccc(NC(=O)CCS(=O)(=O)c3cccs3)cc2)cc1 0.451%, CCOc1ccc(CCNC(=O)CCc2c(C)nc3c(c(C)nn3-c3ccccc3)c2C)cc1OCC -21.1%, COc1cc(OC)c(NC(=O)c2c(C)oc3ncn(C)c(=O)c23)cc1Cl 1.52%, CCn1cc(C(=O)N2CCN(c3cccc(Cl)c3)CC2)c(=O)c2cc(S(=O)(=O)N3CCOCC3)ccc21 -4.51%, C[C@]12CCC(=O)C=C1CC[C@H]1[C@@H]3CC[C@](O)(C(=O)CO)[C@@]3(C)C[C@H](O)[C@@]12F -11.7%, Cc1ccc(Cc2nc3ccccc3nc2SCC(=O)N2CCc3ccccc32)cc1 -1.23%, Cc1ccc(C2CC(=O)N(Cc3ccccc3F)c3c2c(C)nn3-c2nc(C)cc(C)n2)cc1 (stereo unspecified) -20%, Cc1c(NC(=O)c2cc([N+](=O)[O-])ccc2N2CCOCC2)cccc1-c1nc2ccccc2o1 -10.3%, Cc1ccc(NC(=O)c2nc(S(C)(=O)=O)ncc2N(Cc2ccccc2)Cc2ccco2)c(C)c1 -8.1%, CN(C)CCNC(=O)C1CCN(c2nc3ccccc3[nH]2)CC1 -7.3%, COc1ccc(NC(=O)Nc2nnc(N3CCCCCC3)s2)cc1 -10.5%, O=C(CSc1ccc(-c2ccccn2)nn1)Nc1ccc(F)c(F)c1 -12.3%, Cc1ccc(CNC(=O)Cn2c3ncccc3c(=O)n2-c2ccccc2)cc1 -4.71%, COc1ccc(NC(=O)c2nnn(Cc3ccccc3C)c2N)c(OC)c1 -12%, CNC[C@H](O)c1cccc(O)c1 -8.84%, Cc1nn(-c2ccc(F)cc2)c(-n2cccc2)c1C(=O)N1CCN(c2ccc(F)cc2)CC1 -38.7%, Cc1ccc(C(=O)Nc2c(-c3ccccc3)nc3ccccn23)cc1C -1.28%, Cc1cccc(-c2nc(SCc3ccc(Br)cc3)n3[nH]c(=O)cc3n2)c1 -21%, Cn1nc(C(=O)Nc2cc(F)ccc2F)c2c1-c1ccccc1SC2 -1.04%, CC1CCCCN1c1csc2ccc(F)cc2c1=O (stereo unspecified) -6.78%, CCOC(=O)c1cnn(-c2ccc(OC)cc2)c1C1CCN(C(=O)OC(C)(C)C)CC1 -17.5%, CSc1nc2sc3c(c2c(=O)n1-c1ccc(C)c(Cl)c1)CCN(C(C)=O)C3 -11.3%, COc1cc(C(=O)N(Cc2ccc(C(C)C)cc2)C2CCS(=O)(=O)C2)cc(OC)c1OC (stereo unspecified) -24.8%
